The values that follow come from paper PMC6919601, “Identification of Plasmodium dipeptidyl aminopeptidase allosteric inhibitors by high throughput screening” (PLoS ONE, 2019).

In all, about 110,000 compounds went through this assay and about 230 (0.21%) showed an effect of 50% or more. The list shows a part of the results.
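Note: 30 min substrate incubation versus DMSO and 10 µM JCP410 controls.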

The target in the assay is DPAP1 (Plasmodium falciparum, UniProt Q8IIJ9). As to the kind of experiment: primary screen, percent inhibition; read by cleavage of a fluorogenic dipeptide substrate; higher = more effect of the substance. On the set-up: species or system P. falciparum D10 trophozoite lysates; single well.
Sequence of DPAP1 (Q8IIJ9 whole entry, looked up): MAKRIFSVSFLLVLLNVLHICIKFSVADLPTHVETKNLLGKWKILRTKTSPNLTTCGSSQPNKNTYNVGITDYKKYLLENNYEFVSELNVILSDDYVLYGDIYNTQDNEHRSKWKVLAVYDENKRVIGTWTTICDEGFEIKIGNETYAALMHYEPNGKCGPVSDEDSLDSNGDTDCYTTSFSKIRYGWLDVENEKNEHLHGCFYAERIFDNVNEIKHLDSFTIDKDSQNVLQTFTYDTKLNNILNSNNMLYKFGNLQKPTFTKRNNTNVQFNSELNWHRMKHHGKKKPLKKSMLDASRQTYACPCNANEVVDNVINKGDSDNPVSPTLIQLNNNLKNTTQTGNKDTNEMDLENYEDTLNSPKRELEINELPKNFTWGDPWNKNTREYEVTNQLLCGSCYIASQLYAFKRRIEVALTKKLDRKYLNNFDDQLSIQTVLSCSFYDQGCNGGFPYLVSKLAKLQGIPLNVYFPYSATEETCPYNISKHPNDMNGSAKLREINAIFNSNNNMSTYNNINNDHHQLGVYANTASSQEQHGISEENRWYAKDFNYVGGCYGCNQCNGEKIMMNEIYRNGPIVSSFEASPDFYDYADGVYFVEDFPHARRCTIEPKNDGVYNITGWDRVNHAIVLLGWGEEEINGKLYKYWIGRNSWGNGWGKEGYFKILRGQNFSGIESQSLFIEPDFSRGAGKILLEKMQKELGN
As to `Cc1cc2c(c(=O)o1)C(c1ccc(F)c(Br)c1)C(C#N)=C(N)O2` (stereo not drawn), the “% Inhibition @ 10 uM” value was 4.66%.
As for `CC(=O)Nc1ccc2c(c1)CCC(C)C2=O` (stereo not drawn), the “% Inhibition @ 10 uM” value was found to be 4.44%.
Turning to `CC1CCCCC1Nc1nc2ccccc2n2nnnc12` (stereo not drawn), the “% Inhibition @ 10 uM” value was -2.25%.
Take `CC(C)OCCCNC(=O)CCN1C(=O)c2ccccc2Sc2ncccc21`: the “% Inhibition @ 10 uM” value is on record as -4.76%.
For `CC1(C)COC(O)(C(F)(F)F)CC1=O` (stereo not drawn) the value was 4.82%; for `Cc1noc(NS(=O)(=O)c2ccc(NC(=O)COc3cc(Cl)ccc3Cl)cc2)c1C`, 9.33%.
Under `CC(C)(C)NS(=O)(=O)c1ccc(OCC(=O)Nc2cc(C(F)(F)F)ccc2Cl)cc1` stands 3.04%.
Under `CS(=O)(=O)N(CC(=O)N1CCCCCC1)c1ccccc1F` stands -8.67%.
For `CC(C(=O)NCCCN1CCCC1=O)n1sc2ccccc2c1=O` (stereo not drawn), the “% Inhibition @ 10 uM” value was -10.2%.
As to `OCCN1CCN(Cc2ccccc2Br)CC1`, the “% Inhibition @ 10 uM” value is reported as -1.62%.
Under `COc1ccc(NC(=O)/C(=C/c2ccco2)NC(=O)c2ccc(Br)o2)cc1` stands -2.68%; under `COc1cccc(CNCc2c(C(=O)O)n(Cc3ccc(F)cc3)c3cc(C)ccc23)c1`, 5.68%.
For `O=C(O)c1ccccc1N/C=C/[N+](=O)[O-]` the value was -0.128%.
Consider `CC(CNC1CCN(Cc2ccccc2)CC1)c1ccccc1` (stereo not drawn), for which the “% Inhibition @ 10 uM” value is given as -0.446%.
For `COc1ccc(C2=NN(CC(=O)NCCCN3CCCC3=O)C(=O)CC2)cc1` the value was -3.58%; for `CCOc1cc2c(cc1OCC)C(c1ccccc1)OC(=O)C2` (stereo not drawn), 0.0069%; for `COC(=O)/C=C1/SC(N2CCOCC2)=NC1=O`, -0.386%.
For `CN1CCN(C(=O)Nc2ccccc2)CC1` the value was -2.03%; for `O=S(=O)(c1ccc2ccccc2c1)N1CCSC1c1ccccc1` (stereo not drawn), -4.6%; for `COc1ccc(S(=O)(=O)NCc2ccc(C(=O)N3CCC(Cc4ccccc4)CC3)cc2)cc1`, -7.16%.
For `Cc1nnc(SC2CCN(S(=O)(=O)c3cccc(C(F)(F)F)c3)CC2)s1` the value was -1.07%.
With `Cc1cc2ccccc2c(=O)n1CC(=O)NCC(=O)N(C)C1CCCCC1`, the “% Inhibition @ 10 uM” value was found to be 6.57%.
For `Cc1ccc(N2CCN(S(=O)(=O)N3CCCCC3)CC2)c(C)c1` the value was 3.53%; for `CC(=O)NS(=O)(=O)c1ccc(NC(=O)COc2cc(C)ccc2C)cc1`, 1.84%; for `Nc1c(C(=O)NCCc2ccc(Cl)cc2)nnn1Cc1ccc(Br)cc1`, 0.813%.
For `Cc1ccc(C(=O)Nc2ccc(Cl)cn2)cc1S(=O)(=O)N1CCCCC1` the value was -4.41%; for `O=C(O)c1ccc(N2C(=O)CC(Nc3ccc(Cl)cc3)C2=O)cc1` (stereo not drawn), -1.28%.
For `O=C(O)c1cc(NC(=O)C(F)(F)F)cc(NC(=O)C(F)(F)F)c1` the value was -5.36%.
Consider `O=C(c1ccc(Cn2c(SCc3ccccc3)nc3cccnc32)cc1)N1CCOCC1`, for which the “% Inhibition @ 10 uM” value turned out to be 9.02%.
Under `CC(C)OCCCn1c(=O)c2ccccc2n2c(CCC(=O)NCCc3ccccc3)nnc12` stands 3.54%; under `CCOc1cc2c(cc1OCC)C(C(C)CC)NCC2` (stereo not drawn), -4.15%.
For `CCOc1ccccc1N1CCN(Cc2cccc(F)c2)CC1` the value was 3.8%; for `Cc1nnc(N2CCC(C(=O)N3CCC(C)CC3)CC2)c2nn(-c3ccccc3)c(C)c12`, 2.58%; for `CCCN1CCC2(CC1)C(C#N)=C(N)Oc1c2sc2nc(C)cc(C)c12`, 3.05%.
Under `Cc1cc(C(=O)Nc2sc3c(c2C#N)CCCC3)no1` stands 3.55%; under `Cc1cc(=O)n2nc(N3CCCC(C(=O)NCCN4CCOCC4)C3)sc2n1` (stereo not drawn), -3.79%; under `COc1cc(C2=NOC(C(=O)NCCc3ccccc3)C2)cc(OC)c1OC` (stereo not drawn), -0.431%.
As for `CCSc1nc2c(c(=O)n1-c1ccc(C)cc1)C1(CCCCC1)Cc1ccccc1-2`, the “% Inhibition @ 10 uM” value was -3.44%.
Under `CN(C)CCCNC(=O)c1ccc2[nH]c3ccccc3c2c1` stands 3.27%; under `COc1ccccc1OCCCn1cccc1/C=C1\C(=N)N2N=C(N3CCOCC3)SC2=NC1=O`, 0.0579%; under `CN(C)c1ccc(NC(=O)Cc2ccc(F)cc2)cc1`, -0.872%.
For `CSC1=C(C#N)C(c2ccco2)CC(=O)N1` (stereo not drawn) the value was -0.636%; for `CCOC(=O)N1CCN(C(=O)CSc2nc(O)c3cnn(-c4ccc(C)cc4)c3n2)CC1`, 1.9%.
For `COC(=O)C1=C(C)NC(=O)/C1=C\c1cc(C)n(-c2ccc(OC)c(Cl)c2)c1C` the value was -0.0626%; for `O=C(c1ccccc1Cl)N(Cc1ccccc1)c1ccccn1`, 2.02%.
`CC1=C(C(=O)OCCOC(C)C)C(c2c(F)cccc2Cl)CC(=O)N1` (stereo not drawn): the “% Inhibition @ 10 uM” value is recorded as -1%.
For `Cc1nc2c(C(=O)NCCC(C)C)cnn2c(O)c1Cl` the value was -3.94%.
Under `COc1ccc(CC(=O)N2CCN(Cc3noc(CCC(=O)N4CCC(C)CC4)n3)CC2)cc1` stands 1.41%; under `CCc1ccccc1NC(=O)c1ccccc1F`, -3.71%.
As for `O=C(O)C1CC(=O)N(c2ccccc2O)C1` (stereo not drawn), the “% Inhibition @ 10 uM” value is recorded as 4.68%.
For `Cc1cc(=O)n2nc(N3CCCC(C(=O)NCCN4CCCCCC4)C3)sc2n1` (stereo not drawn) the value was 3%; for `c1ccc(C(NCCNC(c2ccccc2)c2ccccc2)c2ccccc2)cc1`, 1.13%; for `COCCNC(=O)c1ccc2c(c1)ncn2-c1ccc(F)cc1F`, 2.8%.
For `O=C(Nc1ccccc1C(=O)O)c1cccc(F)c1` the value was -1.79%; for `Cc1nc(S)c(C#N)c(-c2ccccc2)c1C(=O)Nc1ccccc1`, 34.5%; for `Oc1nc2c(s1)C(c1ccco1)C1C3CCC(C3)C1S2` (stereo not drawn), 2.63%.
For `COc1ccc(S(=O)(=O)N(CC(=O)NC2CCCC2)c2ccccc2)cc1` the value was -5.13%; for `O=C(O)CCn1nnc2ccccc21`, -3.04%; for `Cc1nn(C)cc1C(=O)NCc1ccc(F)cc1`, -1.65%.
For the compound `CN1C(=O)N(C)C(NC(=O)N2CCOCC2)C1NC(=O)N1CCOCC1` (stereo not drawn), the “% Inhibition @ 10 uM” value was found to be 10.8%.
For `N#CC1=C(N)Oc2nc(O)nc(O)c2C1c1cccc(Cl)c1` (stereo not drawn), the “% Inhibition @ 10 uM” value is -0.366%.
For `Cc1cc(O)n2cnnc2n1` the value was -2.4%.
Under `FC(F)(F)c1nc(Nc2cccc(Cl)c2)sc1-c1ccccc1` stands -3.48%; under `O=S1(=O)C(c2ccccc2)=CC1c1ccccc1` (stereo not drawn), -1.08%; under `O=C1c2cccc3cccc(c23)N1CN1CCCCC1`, -1.22%.
Under `CCOC(=O)N1CCN(C(=O)CN2N=C(c3ccc(C)cc3)CCC2=O)CC1` stands 0.514%.
